# Experimental data published in the supplement of paper PMC9135407.
# “And” between values parts separate entries of the source, which are not always exact repeats. Equal entries are not always repeated. Screen size: about 5,800 compounds; about 620 (11%) showed activity.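 Rule for the calls: active = score above a cut-off or among the top three wells of a plate; in these data no inactive exceeds 0.85.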 The entries are a selection whose mix differs from that of the whole data set.
# System: primary human hepatic stellate cells (donor 1)
# Experiment: scaled lipid accumulation score (0 = DMSO-like, 1 = nortriptyline-like); higher = stronger HSC inactivation (lipid re-accumulation), active = hit call of the paper
# Conditions: 48 h
# [1] = library stock concentration: 10 mM
# [2] = library stock concentration: 3.33 mM
compound,measurement,setting,value
CC(C)[N+](C)(CCC(C(N)=O)(c1ccccc1)c1ccccc1)C(C)C [Isopropamide iodide],scaled lipid accumulation score,,inactive: ≤ 0
same,scaled lipid accumulation score,[1],inactive: ≤ 0
O=C([O-])c1ccccc1-c1c2cc(Br)c(=O)cc-2oc2[c]([Hg+])c([O-])c(Br)cc12.[Na+].[Na+].[OH-] [Merbromin],scaled lipid accumulation score,,inactive: ≤ 0
same,scaled lipid accumulation score,[1],inactive: ≤ 0
CN1C[C@H](C(=O)N[C@]2(C)O[C@@]3(O)[C@@H]4CCCN4C(=O)[C@H](Cc4ccccc4)N3C2=O)C[C@@H]2c3cccc4[nH]cc(c34)C[C@H]21.CS(=O)(=O)O [Dihydroergotamine methanesulfonate],scaled lipid accumulation score,[1],active: 1.06
O=c1[nH]c2ccccc2n1CCCN1CCC(n2c(=O)[nH]c3cc(Cl)ccc32)CC1 [Domperidone],scaled lipid accumulation score,,inactive: 0.362
same,scaled lipid accumulation score,[2],inactive: 0.062
same,scaled lipid accumulation score,library stock concentration: 4.7 mM,inactive: 0.135 and inactive: 0.071
COP(=S)(OC)Oc1ccc(SC)c(C)c1,scaled lipid accumulation score,[1],inactive: ≤ 0
CC[C@@H](C(N)=O)N1CCCC1=O [Levetiracetam],scaled lipid accumulation score,[2],inactive: ≤ 0
same,scaled lipid accumulation score,[1],inactive: ≤ 0 and inactive: 0.072
same,scaled lipid accumulation score,library stock concentration: 11.8 mM,inactive: ≤ -0.006
NCC(CS(=O)(=O)O)c1ccc(Cl)cc1 (centres undefined) [Saclofen],scaled lipid accumulation score,[1],inactive: ≤ 0
CC[C@@]1(O)C[C@H](O)c2c(cc3c(c2O)C(=O)c2c(O)ccc(O)c2C3=O)[C@H]1C(=O)OC [Rutilantinone],scaled lipid accumulation score,[1],inactive: ≤ 0
O=C(O)CCCc1ccc(N(CCCl)CCCl)cc1 [Chlorambucil],scaled lipid accumulation score,,inactive: ≤ 0
same,scaled lipid accumulation score,library stock concentration: 6.6 mM,inactive: ≤ 0 and inactive: 0.01
same,scaled lipid accumulation score,[1],inactive: ≤ 0
O=C(O)CCCc1ccc(N(CCCl)CCCl)cc1,scaled lipid accumulation score,[1],inactive: ≤ 0
O=C(O)CCCc1ccc(N(CCCl)CCCl)cc1 [Chloroambucil],scaled lipid accumulation score,[2],inactive: ≤ 0
same,scaled lipid accumulation score,[1],inactive: ≤ -0.001
O=Cc1cn(Cc2ccc(Cl)cc2)c2ccccc12 [Oncrasin 1],scaled lipid accumulation score,[1],inactive: 0.016
C[C@@H]1O[C@@H](O[C@H]2C[C@@H](O)[C@]3(CO)C4C(CC[C@]3(O)C2)[C@@]2(O)CC[C@H](C3=CC(=O)OC3)[C@@]2(C)C[C@H]4O)[C@H](O)[C@H](O)[C@H]1O (some centres undefined) [Ouabain],scaled lipid accumulation score,[1],active: 0.993
C[C@]12CC[C@H]3[C@@H](CC[C@]4(O)C[C@@H](O)CC[C@]34C=O)[C@@]1(O)CC[C@@H]2C1=CC(=O)OC1 [Strophanthidin],scaled lipid accumulation score,,active: 0.887
CCS(=O)(=O)Nc1cccc(C(=C2CCCCC2)c2cnc[nH]2)c1,scaled lipid accumulation score,[1],inactive: 0.044
